One assay concerns HSkMC. As to the kind of experiment: cytotoxicity call (relative viability < 0.9). The following applies: 10 µM.
The next assay concerns HepG2. Briefly: cytotoxicity call (relative viability < 0.9). The following applies: 10 µM.
The next assay deals with S. aureus RN4220. As to the kind of experiment: growth inhibition call (relative growth <= 0.2). The following applies: 50 µM.

Cytotoxicity call and growth inhibition call data for 24 molecules are collected here from the antibiotic and cytotoxicity screens of Wong et al. (2023).

The list shows a part of the results.

As for `Cc1noc(C)c1NC(=O)N(C)C[C@@H]1OCCCC[C@@H](C)Oc2ccc(NC(=O)Nc3ccc(C(F)(F)F)cc3)cc2C(=O)N([C@@H](C)CO)C[C@H]1C`, the cytotoxicity call with HSkMC and in the assay with HepG2 was “inactive” each time. Moreover, in the assay on S. aureus RN4220, the growth inhibition call was “inactive”.

`C[C@H](CO)N1C[C@H](C)[C@@H](CN(C)C(=O)Nc2cccc3ccccc23)Oc2ccc(NC(=O)Nc3ccc(C(F)(F)F)cc3)cc2CC1=O`: the cytotoxicity call in the assay on HSkMC and in the assay on HepG2 was “inactive” throughout. Besides, the growth inhibition call in the assay on S. aureus RN4220 was “inactive”.

`C[C@@H]1CCCCO[C@@H](CN(C)Cc2ccc(Cl)c(Cl)c2)[C@H](C)CN([C@H](C)CO)C(=O)c2cc(NS(=O)(=O)c3ccc(F)cc3)ccc2O1`: the cytotoxicity call in the assay with HSkMC and in the assay with HepG2 was “active” in each case. Also, the growth inhibition call in the assay on S. aureus RN4220 is “inactive”.

For `C[C@H]1CN([C@@H](C)CO)C(=O)Cc2cc(NC(=O)Cn3cnnn3)ccc2O[C@H]1CN(C)C(=O)Nc1ccccc1`, the cytotoxicity call in the assay with HSkMC and in the assay on HepG2 was “inactive” in each case. Besides, the growth inhibition call with S. aureus RN4220 is “inactive”.

Consider `C[C@@H]1CN([C@@H](C)CO)C(=O)c2cc(NC(=O)Nc3ccc4c(c3)OCO4)ccc2O[C@@H](C)CCCCO[C@H]1CN(C)S(=O)(=O)c1ccccc1`, for which the cytotoxicity call with HSkMC and with HepG2 was “inactive” each time. Besides, the growth inhibition call in the assay with S. aureus RN4220 is “inactive”.

As to `COc1ccccc1C#Cc1cnc2c(c1)C(=O)N([C@@H](C)CO)C[C@@H](C)[C@@H](CN(C)C(=O)c1ccc3c(c1)OCO3)O2`, the cytotoxicity call in the assay with HSkMC and with HepG2 was “inactive” in each case. The growth inhibition call with S. aureus RN4220 is “inactive”.

As for `C[C@@H]1CN([C@H](C)CO)C(=O)c2cc(NC(=O)Nc3ccc4c(c3)OCO4)ccc2O[C@H]1CN(C)S(=O)(=O)c1cn(C)cn1`, the cytotoxicity call in the assay on HSkMC and in the assay with HepG2 was “inactive” throughout. The growth inhibition call in the assay on S. aureus RN4220 is “inactive”.

`CC(C)NC(=O)N(C)C[C@H]1Oc2ccc(NC(=O)Cc3ccccc3)cc2CC(=O)N([C@@H](C)CO)C[C@H]1C`: the cytotoxicity call in the assay on HSkMC and in the assay on HepG2 was “inactive” each time. The growth inhibition call in the assay with S. aureus RN4220 is “inactive”.

As for `C[C@@H]1CN([C@@H](C)CO)C(=O)CCCn2cc(nn2)CO[C@H]1CN(C)S(=O)(=O)c1ccc(C#N)cc1`, the cytotoxicity call in the assay with HSkMC and with HepG2 was “inactive” in each case. Moreover, the growth inhibition call in the assay with S. aureus RN4220 was “inactive”.

As to `Cc1c(-c2ccc(-c3ccc(Cl)c(Cl)c3)o2)nc(-c2ccccc2)c2c1CO[Si]2(C(C)C)C(C)C`, the cytotoxicity call in the assay on HSkMC and in the assay with HepG2 was “inactive” throughout. For the same molecule, the growth inhibition call in the assay with S. aureus RN4220 was “inactive”.

Take `C[N+](C)(C)[C@@H]1[C@H]2OC[C@H](O)[C@H]2O[C@@H]1O`: the cytotoxicity call in the assay on HSkMC and in the assay on HepG2 was “inactive” throughout. The growth inhibition call in the assay on S. aureus RN4220 was “inactive”.

On to `NS(=O)(=O)OCCCCCCCOS(N)(=O)=O`, for which the cytotoxicity call in the assay on HSkMC and in the assay with HepG2 was “inactive” throughout. In the assay with S. aureus RN4220, the growth inhibition call was “inactive”.

With `COc1ccc(NC(=O)N(C)C[C@@H]2Oc3ncc(C#CCN(C)C)cc3C(=O)N([C@@H](C)CO)C[C@@H]2C)cc1`, the cytotoxicity call with HSkMC and in the assay on HepG2 was “inactive” in each case. Also, in the assay on S. aureus RN4220, the growth inhibition call was “inactive”.

Regarding `C[C@H]1CN([C@@H](C)CO)S(=O)(=O)c2ccc(C#Cc3ccncc3)cc2O[C@@H]1CN(C)C(=O)C1CCOCC1`, in the assay on HSkMC, the cytotoxicity call is “inactive”. Besides, the cytotoxicity call in the assay on HepG2 was “active”. Further, in the assay with S. aureus RN4220, the growth inhibition call is “inactive”.

Take `Cc1noc(C)c1NC(=O)N(C)C[C@H]1OCCCC[C@H](C)Oc2ccc(NS(=O)(=O)c3cccs3)cc2C(=O)N([C@@H](C)CO)C[C@H]1C`: the cytotoxicity call in the assay with HSkMC and with HepG2 was “inactive” each time. For the same molecule, the growth inhibition call in the assay on S. aureus RN4220 was “inactive”.

On to `Cc1noc(C)c1S(=O)(=O)N(C)C[C@@H]1Oc2ccc(NC(=O)Cc3cn(C)c4ccccc34)cc2CC(=O)N([C@H](C)CO)C[C@H]1C`, for which the cytotoxicity call with HSkMC and with HepG2 was “inactive” throughout. For the same molecule, the growth inhibition call in the assay with S. aureus RN4220 was “inactive”.

`O=C(NCCN1CCCC1)[C@@H]1[C@@H](CO)[C@@H]2Cn3c(cccc3=O)[C@H]1N2C(=O)NC1CCCC1`: the cytotoxicity call in the assay with HSkMC and with HepG2 was “inactive” throughout. The growth inhibition call with S. aureus RN4220 was “inactive”.

Consider `O=C(C[C@H]1CC[C@@H]2[C@H](COC[C@H](O)CN2S(=O)(=O)c2ccc(Cl)cc2)O1)NCC1CCCCC1`, for which the cytotoxicity call in the assay with HSkMC and in the assay with HepG2 was “inactive” each time. Moreover, in the assay with S. aureus RN4220, the growth inhibition call was “active”.

Regarding `C[C@H]1CN([C@@H](C)CO)C(=O)Cc2cc(NC(=O)Nc3cccc4ccccc34)ccc2O[C@@H]1CN(C)Cc1ccc(C(=O)Nc2ccccc2N)cc1`, the cytotoxicity call in the assay with HSkMC and in the assay with HepG2 was “inactive” throughout. The growth inhibition call in the assay on S. aureus RN4220 is “inactive”.

For the molecule `CO[C@H]1CN(C)C(=O)c2ccc(NC(=O)C3CC3)cc2OC[C@H](C)N(C(=O)C2CCOCC2)C[C@H]1C`, the cytotoxicity call with HSkMC and in the assay with HepG2 was “inactive” in each case. For the same molecule, in the assay with S. aureus RN4220, the growth inhibition call was “inactive”.

`C[C@@H]1CN([C@@H](C)CO)C(=O)Cc2cc(NC(=O)Cc3cn(C)c4ccccc34)ccc2O[C@H]1CN(C)Cc1ccc(Oc2ccccc2)cc1`: the cytotoxicity call in the assay on HSkMC is “inactive”. Moreover, the cytotoxicity call in the assay on HepG2 was “active”. For the same molecule, the growth inhibition call in the assay on S. aureus RN4220 is “inactive”.

Take `C[C@@H]1CCCCO[C@@H](CN(C)C(=O)Nc2ccccc2)[C@@H](C)CN([C@@H](C)CO)C(=O)c2cc(NC(=O)Nc3ccc(C(F)(F)F)cc3)ccc2O1`: the cytotoxicity call in the assay on HSkMC was “inactive”. Further, in the assay on HepG2, the cytotoxicity call is “active”. Moreover, the growth inhibition call in the assay with S. aureus RN4220 was “inactive”.

Regarding `CCNC(=O)C[C@@H]1C=C[C@H](NC(=O)C2CC2)[C@@H](CO)O1`, the cytotoxicity call in the assay on HSkMC (human skeletal muscle cells) and in the assay with HepG2 was “inactive” in each case. Also, the growth inhibition call with S. aureus RN4220 was “inactive”.

Turning to `COc1ccccc1NC(=O)N(C)C[C@@H]1Oc2ncc(C#CCN(C)C)cc2C(=O)N([C@H](C)CO)C[C@H]1C`, the cytotoxicity call in the assay with HSkMC and in the assay on HepG2 was “inactive” throughout. Besides, the growth inhibition call in the assay on S. aureus RN4220 is “inactive”.
